According to the RNAGym collection of RNA variant scans (doi:10.1093/nar/gkz1192):
Read counts are not given, so values of variants with three or more changes are uncertain.

B1: CPEB3 Ribozyme (parent)
chain: UAACAGGGGGCCACAGCAGAAGCGUUCACGUCGCAGCCCCUGUCAGAUUCUGGUGAAUCUGCGAAUUCUGCUGUAUAUCUC

Variants of: B1
Test: self-cleavage, relative activity (ratio to wild type); higher = more cleavage; in vitro, sequencing
How it was run: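 After error-prone PCR and barcoding, CPEB3 ribozyme mutant libraries were transcribed with T7 RNA polymerase at 37°C for 5 hours, then given 15 min with DNase I before an EDTA stop, and they cleaved during both steps. Reverse transcription with template switching preceded Illumina sequencing. Relative activity divides a variant's cleaved/total read fraction by the unmutated ribozyme's. At least 5 reads were required per variant, and three batches were averaged.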

Row | Variant | self-cleavage
1 | A15G U67C U76A | 0.13
2 | A15G U69A G73A U80G | 0.51
3 | A15G U69A U76C | 0.4
4 | A15G U72A U74C A77U | 0.27
5 | A15G U72C C79G | 1.27
6 | A15G U76A C81G | 0.6
7 | A15G U76C A77U | 0.6
8 | A15U A18C A21G | 0.33
9 | A15U A18C G30U A65G | 0.11
10 | A15U A18G A20G | 0.46
11 | A15U A18G A20G A47G U72C | 0.08
12 | A15U A18G A20G A64G | 0.12
13 | A15U A18G A20U U25C C27A G73A | 0.35
14 | A15U A18G A21G A47G U60C U72C | 0
15 | A15U A18G A21G U25C C27G U60C A75G | 0.03
16 | A15U A18G A28G A35U U80C | 0.08
17 | A15U A18G A28G U31C U60A U69C | 0.05
18 | A15U A18G A45U G53U U66C U80C | 0.12
19 | A15U A18G A47G | 0.2
20 | A15U A18G A77U | 0.52
21 | A15U A18G C27A A28G C62U U74G U80C | 0

Row | Variant | self-cleavage
22 | A15U A18G C29U U51C U58A | 0.09
23 | A15U A18G U25C U60C A65G U74C U78C | 0.05
24 | A15U A18G U41C | 0.21
25 | A15U A18G U43A U67C | 0.14
26 | A15U A18G U43C A56G A64U U67C | 0.1
27 | A15U A18G U48A U66C A75G | 0.17
28 | A15U A18G U49A A65G A77G | 0.07
29 | A15U A18G U51C | 0.14
30 | A15U A18G U54C | 0.2
31 | A15U A18G U69C | 0.8
32 | A15U A18G U72C | 0.35
33 | A15U A18U A20G U31C G52C U66G U69C | 0.1
34 | A15U A18U A20G U41C A56G | 0.37
35 | A15U A18U A20G U43A A47U U78C | 0.03
36 | A15U A18U A21G C23A A28G | 0.2
37 | A15U A18U A35G U41C U43C A64G | 0
38 | A15U A18U A47G | 0.14
39 | A15U A18U C27U U54A | 0.13
40 | A15U A18U C27U U60A A64G | 0.08
41 | A15U A18U C38U C71A U74A A75U | 0.07
42 | A15U A18U C50U U54C U60A U72C | 0.1

Row | Variant | self-cleavage
43 | A15U A18U C62U | 0.08
44 | A15U A18U U25C U49C U78C | 0.07
45 | A15U A18U U25C U51G U54C | 0.04
46 | A15U A18U U25G | 0.43
47 | A15U A18U U26G U49A A65U U69C | 0.11
48 | A15U A18U U31C C71A U74A A75U | 0.1
49 | A15U A18U U43A U48C U51A A64U | 0.07
50 | A15U A18U U49C A64G | 0.24
51 | A15U A18U U51C U72A | 0.18
52 | A15U A18U U54A C79A | 0.12
53 | A15U A18U U60C U72C | 0.16
54 | A15U A20C U31C A45U U51A U78C | 0.06
55 | A15U A20C U60C | 0.14
56 | A15U A20G A21G A35G A64U | 0.05
57 | A15U A20G A21U G24U A45G G53A | 0.08
58 | A15U A20G A28U | 0.23
59 | A15U A20G A28U A47G U49C U72C | 0.06
60 | A15U A20G A35U A57G | 0.09
61 | A15U A20G A35U U69A U72A U74A U80C | 0.03
62 | A15U A20G A45G U48C | 0.09
63 | A15U A20G A56U | 0.17

Row | Variant | self-cleavage
64 | A15U A20G A64G | 0.22
65 | A15U A20G C23A | 0.13
66 | A15U A20G C39A A75U | 0.08
67 | A15U A20G C62U C71G | 0.07
68 | A15U A20G G22U | 0.23
69 | A15U A20G G33U U51C G70A | 0.23
70 | A15U A20G G46U U48A U60C | 0.22
71 | A15U A20G U26C G33A U43C U69G | 0.07
72 | A15U A20G U26C U49C U72C | 0.06
73 | A15U A20G U43C A57G G73U | 0.18
74 | A15U A20G U54G A64G U78C | 0.11
75 | A15U A20G U60C | 0.23
76 | A15U A20U A56U U72A | 0.07
77 | A15U A20U A64U | 0.12
78 | A15U A20U A65G A77C | 0.17
79 | A15U A20U C23U U25C U67A | 0.06
80 | A15U A20U C32U U48C U80C | 0.14
81 | A15U A20U U25A A35G | 0.09
82 | A15U A20U U31A U72G U74C | 0.06
83 | A15U A20U U31C | 0.05
